According to the supplement of paper PMC8728848:
The other results are listed elsewhere or left out.

How the values were obtained:
Test in all cases: glycan array binding signal (z-score within array); higher = stronger binding
Settings in all cases: glycan notation: IUPAC condensed, linker removed
Fuc(a1-2)[Gal(a1-3)]Gal = target: Fuc(a1-2)[Gal(a1-3)]Gal
Procedure, shortened: (§1)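 Columns mapping to the same glycan were averaged after glycan names were converted to IUPAC-condensed notation. The data come from 3228 arrays in the Consortium for Functional Glycomics database, limited to those with an available protein sequence. Binding is reported as a within-array Z-score averaged across arrays of one protein sequence and across linkers.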

[1] = target: Fuc(a1-2)[Gal(a1-3)]Gal(b1-3)GlcNAc
Procedure, shortened: as §1

[2] = target: Fuc(a1-2)[Gal(a1-3)]Gal(b1-3)GlcNAc(b1-2)Man(a1-3)[Fuc(a1-2)[Gal(a1-3)]Gal(b1-3)GlcNAc(b1-2)Man(a1-6)]Man(b1-4)GlcNAc(b1-4)GlcNAc
Procedure, shortened: as §1

[3] = target: Fuc(a1-2)[Gal(a1-3)]Gal(b1-3)GlcNAc(b1-3)GalNAc
Procedure, shortened: as §1

[4] = target: Fuc(a1-2)[Gal(a1-3)]Gal(b1-4)Glc
Procedure, shortened: as §1

[5] = target: Fuc(a1-2)[Gal(a1-3)]Gal(b1-4)GlcNAc
Procedure, shortened: as §1

[6] = target: Fuc(a1-2)[Gal(a1-3)]Gal(b1-4)GlcNAc(b1-2)Man(a1-3)[Fuc(a1-2)[Gal(a1-3)]Gal(b1-4)GlcNAc(b1-2)Man(a1-6)]Man(b1-4)GlcNAc(b1-4)GlcNAc
Procedure, shortened: as §1

[7] = target: Fuc(a1-2)[Gal(a1-3)]Gal(b1-4)GlcNAc(b1-2)Man(a1-3)[Fuc(a1-2)[Gal(a1-3)]Gal(b1-4)GlcNAc(b1-2)Man(a1-6)]Man(b1-4)GlcNAc(b1-4)[Fuc(a1-6)]GlcNAc
Procedure, shortened: as §1

[8] = target: Fuc(a1-2)[Gal(a1-3)]Gal(b1-4)GlcNAc(b1-3)GalNAc
Procedure, shortened: as §1

[9] = target: Fuc(a1-2)[Gal(a1-3)]Gal(b1-4)[Fuc(a1-3)]Glc
Procedure, shortened: as §1

[10] = target: Fuc(a1-2)[Gal(a1-3)]Gal(b1-4)[Fuc(a1-3)]GlcNAc
Procedure, shortened: as §1

[11] = target: Fuc(a1-2)[Gal(a1-3)]Gal(b1-4)[Fuc(a1-3)]GlcNAc(b1-3)GalNAc
Procedure, shortened: as §1

[12] = target: Fuc(a1-2)[Gal(a1-4)]Gal(b1-4)GlcNAc
Procedure, shortened: as §1

[13] = target: Fuc(a1-2)[GalNAc(a1-3)]Gal
Procedure, shortened: as §1

[14] = target: Fuc(a1-2)[GalNAc(a1-3)]Gal(b1-3)GalNAc(a1-3)[Fuc(a1-2)]Gal(b1-4)GlcNAc
Procedure, shortened: as §1

[15] = target: Fuc(a1-2)[GalNAc(a1-3)]Gal(b1-3)GlcNAc
Procedure, shortened: as §1

[16] = target: Fuc(a1-2)[GalNAc(a1-3)]Gal(b1-3)GlcNAc(b1-2)Man(a1-3)[Fuc(a1-2)[GalNAc(a1-3)]Gal(b1-3)GlcNAc(b1-2)Man(a1-6)]Man(b1-4)GlcNAc(b1-4)GlcNAc
Procedure, shortened: as §1

[17] = target: Fuc(a1-2)[GalNAc(a1-3)]Gal(b1-3)GlcNAc(b1-3)GalNAc
Procedure, shortened: as §1

[18] = target: Fuc(a1-2)[GalNAc(a1-3)]Gal(b1-4)Glc
Procedure, shortened: as §1

[19] = target: Fuc(a1-2)[GalNAc(a1-3)]Gal(b1-4)GlcNAc
Procedure, shortened: as §1

[20] = target: Fuc(a1-2)[GalNAc(a1-3)]Gal(b1-4)GlcNAc(b1-2)Man(a1-3)[Fuc(a1-2)[GalNAc(a1-3)]Gal(b1-4)GlcNAc(b1-2)Man(a1-6)]Man(b1-4)GlcNAc(b1-4)GlcNAc
Procedure, shortened: as §1

[21] = target: Fuc(a1-2)[GalNAc(a1-3)]Gal(b1-4)GlcNAc(b1-3)Gal(b1-4)GlcNAc
Procedure, shortened: as §1

[22] = target: Fuc(a1-2)[GalNAc(a1-3)]Gal(b1-4)GlcNAc(b1-3)Gal(b1-4)GlcNAc(b1-3)Gal(b1-4)GlcNAc
Procedure, shortened: as §1

[23] = target: Fuc(a1-2)[GalNAc(a1-3)]Gal(b1-4)GlcNAc(b1-3)GalNAc
Procedure, shortened: as §1

[24] = target: Fuc(a1-2)[GalNAc(a1-3)]Gal(b1-4)[Fuc(a1-3)]GlcNAc
Procedure, shortened: as §1

[25] = target: Fuc(a1-2)[GalNAc(a1-3)]Gal(b1-4)[Fuc(a1-3)]GlcNAc(b1-3)GalNAc
Procedure, shortened: as §1

[26] = target: Fuc(a1-2)[GalNAc(a1-4)]Gal(b1-4)GlcNAc
Procedure, shortened: as §1

[27] = target: Fuc(a1-2)[GalNAc(b1-3)]Gal
Procedure, shortened: as §1

Fuc(a1-3)GlcNAc = target: Fuc(a1-3)GlcNAc
Procedure, shortened: as §1

[28] = target: Fuc(a1-3)[Gal(b1-4)]Glc6S
Procedure, shortened: as §1

[29] = target: Fuc(a1-3)[Gal(b1-4)]GlcNAc
Procedure, shortened: as §1

[30] = target: Fuc(a1-3)[Gal(b1-4)]GlcNAc(b1-2)Man(a1-3)[Fuc(a1-3)[Gal(b1-4)]GlcNAc(b1-2)Man(a1-6)]Man(b1-4)GlcNAc(b1-4)GlcNAc
Procedure, shortened: as §1

[31] = target: Fuc(a1-3)[Gal(b1-4)]GlcNAc(b1-2)Man(a1-3)[Fuc(a1-3)[Gal(b1-4)]GlcNAc(b1-2)Man(a1-6)]Man(b1-4)GlcNAc(b1-4)[Fuc(a1-6)]GlcNAc
Procedure, shortened: as §1

[32] = target: Fuc(a1-3)[Gal(b1-4)]GlcNAc(b1-3)Gal(b1-3)[Fuc(a1-4)]GlcNAc
Procedure, shortened: as §1

[33] = target: Fuc(a1-3)[Gal(b1-4)]GlcNAc(b1-3)GalNAc
Procedure, shortened: as §1

[34] = target: Fuc(a1-3)[Gal(b1-4)]GlcNAc(b1-4)Gal(b1-4)[Fuc(a1-3)]GlcNAc
Procedure, shortened: as §1

[35] = target: Fuc(a1-3)[Gal(b1-4)]GlcNAc(b1-4)Gal(b1-4)[Fuc(a1-3)]GlcNAc(b1-4)Gal(b1-4)[Fuc(a1-3)]GlcNAc
Procedure, shortened: as §1

[36] = target: Fuc(a1-3)[Gal(b1-4)]GlcNAc(b1-6)[Gal(b1-3)GlcNAc(b1-3)]Gal(b1-4)Glc
Procedure, shortened: as §1

B1: Gal 2 (Canis lupus) (protein)
chain: MSGKFEVMNMDMKLGGTLKIKGKIAGDADGFVINLGQGSDKLNLHFNPRFHESVIVCNSRNWGQEQRDKHMCFSPGSEVKFTVTFENDGFKVKLPDGHQLTFPNRLGHSHLSYLGVQGGLKVSSFKIE
B1 was tested, and the “glycan array binding signal (z-score)” value (Fuc(a1-2)[Gal(a1-3)]Gal) was -0.164, the “glycan array binding signal (z-score)” value [1] was -0.127 and the “glycan array binding signal (z-score)” value [2] was 0.077. The “glycan array binding signal (z-score)” value [3] was -0.08, the “glycan array binding signal (z-score)” value [4] was -0.096 and the “glycan array binding signal (z-score)” value [5] was 0.681. The “glycan array binding signal (z-score)” value [6] was 15.5, the “glycan array binding signal (z-score)” value [7] was 6.28 and the “glycan array binding signal (z-score)” value [8] was -0.25. For the same binder, the “glycan array binding signal (z-score)” value [9] was 0.003, the “glycan array binding signal (z-score)” value [10] was -0.049 and the “glycan array binding signal (z-score)” value [11] was 0.088. For the same binder, the “glycan array binding signal (z-score)” value [12] was 0.295, the “glycan array binding signal (z-score)” value [13] was -0.339 and the “glycan array binding signal (z-score)” value [14] was -0.173. For the same binder, the “glycan array binding signal (z-score)” value [15] was -0.019, the “glycan array binding signal (z-score)” value [16] was -0.046 and the “glycan array binding signal (z-score)” value [17] was -0.073. For the same binder, the “glycan array binding signal (z-score)” value [18] was 0.159, the “glycan array binding signal (z-score)” value [19] was -0.266 and the “glycan array binding signal (z-score)” value [20] was 0.616. For the same binder, the “glycan array binding signal (z-score)” value [21] was 0.053, the “glycan array binding signal (z-score)” value [22] was 0.067 and the “glycan array binding signal (z-score)” value [23] was -0.214. The “glycan array binding signal (z-score)” value [24] was -0.065, the “glycan array binding signal (z-score)” value [25] was -0.296 and the “glycan array binding signal (z-score)” value [26] was 0.039. The “glycan array binding signal (z-score)” value [27] was -0.13, the “glycan array binding signal (z-score)” value (Fuc(a1-3)GlcNAc) was -0.006 and the “glycan array binding signal (z-score)” value [28] was -0.281. For the same binder, the “glycan array binding signal (z-score)” value [29] was 0.078, the “glycan array binding signal (z-score)” value [30] was 0.204 and the “glycan array binding signal (z-score)” value [31] was 0.344. For the same binder, the “glycan array binding signal (z-score)” value [32] was -0.261, the “glycan array binding signal (z-score)” value [33] was -0.395 and the “glycan array binding signal (z-score)” value [34] was 0.043. The “glycan array binding signal (z-score)” value [35] was -0.23 and the “glycan array binding signal (z-score)” value [36] was -0.17.
